Test results as given in the supplement of paper PMC3334620.
The full ranking holds about 33,000 sequences; the median of “E-score (-0.5 to 0.5)” is about -0.011, and the highest 2% start at about 0.28. This is one part of the list.

Each sequence was assayed against T1, Gcr1 (UniProt P07261) (assay: PBM E-score (8-mer binding enrichment) (E-score (-0.5 to 0.5)); higher = stronger / more preferred TF binding; most listed sequences are background and not binding sites). Conditions: protein concentration: 100 nM; construct: GST-full length.
T1 sequence: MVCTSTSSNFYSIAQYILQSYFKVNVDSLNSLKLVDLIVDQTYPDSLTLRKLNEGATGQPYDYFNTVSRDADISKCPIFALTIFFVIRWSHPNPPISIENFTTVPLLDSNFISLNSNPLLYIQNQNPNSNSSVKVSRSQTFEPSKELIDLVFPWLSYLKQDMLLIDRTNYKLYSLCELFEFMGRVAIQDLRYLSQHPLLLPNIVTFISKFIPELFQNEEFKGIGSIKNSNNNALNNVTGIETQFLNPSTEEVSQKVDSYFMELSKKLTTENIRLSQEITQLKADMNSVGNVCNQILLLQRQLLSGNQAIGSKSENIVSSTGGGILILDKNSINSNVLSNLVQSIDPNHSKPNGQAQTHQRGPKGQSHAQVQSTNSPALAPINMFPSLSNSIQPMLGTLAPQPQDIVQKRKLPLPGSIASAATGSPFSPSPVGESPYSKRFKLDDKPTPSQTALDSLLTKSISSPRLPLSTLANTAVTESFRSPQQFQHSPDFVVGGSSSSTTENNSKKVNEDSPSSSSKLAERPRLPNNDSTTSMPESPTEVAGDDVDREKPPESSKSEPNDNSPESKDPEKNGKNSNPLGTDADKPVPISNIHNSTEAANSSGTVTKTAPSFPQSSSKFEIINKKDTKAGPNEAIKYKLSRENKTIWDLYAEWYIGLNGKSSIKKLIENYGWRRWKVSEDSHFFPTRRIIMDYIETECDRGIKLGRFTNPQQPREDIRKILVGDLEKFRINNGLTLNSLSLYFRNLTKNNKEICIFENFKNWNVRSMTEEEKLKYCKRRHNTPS
Outline: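 Bound GST-tagged yeast transcription factors, applied at about 100-200 nM to double-stranded universal all-10-mer Agilent arrays, were detected with fluorescent anti-GST. Scans were normalised with masliner. A modified Wilcoxon-Mann-Whitney statistic, the E-score, was assigned to each ungapped eight-base word pooled with its reverse complement by the Universal PBM Analysis Suite.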

Sequence | PBM E-score
GAAAACAA | -0.0846
TGGGCCAA | -0.0838
AAGCGATG | -0.00894
ATGGAAGA | -0.0302
ATGTATAA | -0.0422
ATAAGCAT | 0.00462
CAGGTGGG | -0.045
CAAGATAC | 0.0544
CGTCGCCC | 0.0704
CCCCAGCC | -0.126
GCTCCAGA | 0.0749
AATCCCAC | 0.0067
CACAGCTA | -0.0538
ACGGACGG | -0.177
CGATAGGA | 0.0876
CATTACGC | 0.137
ATGTGGGC | -0.0497
ATACTAAT | 0.188
GCATTGGA | 0.0264
GCCATGCC | -0.16
GAAGGGTA | 0.155
GTGGGTTA | 0.0887
ATTCTAGC | 0.0665
CAGATATG | 0.125
TCAAAGAA | 0.0168

Sequence | PBM E-score
CATAATAC | 0.149
AGGCCACC | -0.0169
TCTTGGAA | 0.00248
AGAATAAT | 0.207
TAAAAGCA | 0.2
AGCATTTC | 0.0346
CACTTAAA | 0.0634
CTTCGGAA | 0.086
GACCCCCC | -0.241
ATACTTCG | -0.12
AGGCTCAC | -0.175
ATGTTTGG | -0.0852
CCTCTACA | 0.216
AAAGTTGA | 0.102
GGACGAAA | -0.00369
GATCTTGA | 0.0503
CCAACAAC | 0.103
AAGCGCCG | -0.0799
AAGAAGAT | 0.338
CGGTGAAA | -0.0939
AACATGGC | -0.292
AATGGGAA | 0.132
ATACAATG | 0.0525
GGGGCACC | 0.351
CTTTTCCC | -0.0809

Sequence | PBM E-score
ATTGCATC | 0.0623
ATGAGTAA | -0.163
AGAAAGTG | -0.0718
AAAGTAAA | 0.0386
ATGCTATA | 0.0929
AAGAAATA | 0.176
CTCCTTTA | 0.115
GCAATAGA | 0.0987
AACACGTT | -0.105
GTACATAC | -0.0386
AGAGCCTA | -0.186
AGCGCCGA | 0.0415
TCTGCAAA | -0.0886
ATCACAAC | -0.0352
CAACTGAC | -0.172
ACGAAAAG | -0.0632
GAAAAAGC | 0.012
GCTCCACA | 0.0711
CGTCTGAC | -0.0137
CTTAACTA | 0.0693
ATCTTAAG | 0.0404
CTAGTGAG | 0.0315
ACTTTCAT | -0.107
AATAGGGC | 0.00213
ATTCTCAG | -0.108

Sequence | PBM E-score
ATCAGAAA | -0.164
AACGCCCC | -0.133
TGTAACAA | 0.231
CAGGTGGA | -0.0941
AATATCAC | -0.0571
AAGTCAAC | -0.0231
CAGCGACC | 0.0247
AGTTCTCG | -0.229
ATTTGCTG | 0.0999
TCGCCAAA | 0.101
CCTCATTA | 0.1
AATCCTTG | -0.032
GGAGGCGA | -0.0288
AGCTGAGC | -0.162
CTGCGATC | -0.00692
AAAGGCAT | -0.192
CAAGCGGA | -0.137
CCTTGCTA | -0.124
GAGCCCCC | 0.0093
ATCTTAAA | 0.175
ATACTTCA | -0.161
ATCCCCGA | 0.0266
CAATAAGA | 0.0471
ACGGCTCT | -0.00284
CACCCCTC | -0.0319

Sequence | PBM E-score
AGAAGAGG | 0.188
ATAACTAC | 0.0414
ACCCGTGC | -0.189
CATAGTCA | -0.135
CCTGCAGG | -0.0642
CAAGATTG | 0.124
GTTTATAA | 0.129
CGACCTAA | 0.159
CGAGTCTC | -0.161
CCCTGGCC | -0.328
CTTTATTC | -0.0845
GAAGAAAA | -0.0497
GCCACCGC | -0.2
ATCGGTTA | -0.159
CGGCTGCA | 0.0568
GTTCTACA | 0.0726
AGAAACCA | 0.193
GGGGAAAA | -0.214
ATCCTAGC | 0.0076
AGATCGCC | -0.147
CAGAACGA | -0.0449
CATAGGAC | 0.0126
ATTGCAGC | 0.141
ACAGCGGG | -0.061
ACTTGCAT | 0.0333

Sequence | PBM E-score
GCTACGTA | 0.101
ATGCCTGG | -0.00807
ACCTAAAC | 0.217
CCCATACA | 0.0223
AGCGTCAT | 0.1
CAAAGCGG | 0.0601
CACTATGG | -0.199
CAATCCAG | 0.0522
CTTTACGC | -0.0395
GACTCGTA | -0.149
ACACATAG | -0.021
AGAGTGTG | -0.00779
ACAGTTAG | 0.00922
CGTTAACG | -0.337
TGCCGTAA | -0.0522
CAAGAACC | 0.13
GAAGGCGC | 0.16
ATAATTCA | 0.102
GAGCCTAA | -0.0571
AGCTATTA | -0.103
CCGTTCCA | -0.105
TCTGACAA | 0.00319
CGCAACTA | 0.258
TCGGTCAA | -0.214
CGTCGCTA | -0.109

Sequence | PBM E-score
CGCCTTGA | 0.0466
ATCGAGAT | -0.102
GCACTCCC | -0.0571
CCGACCTA | 0.0158
GAAACTGA | 0.0446
AAAGACCG | -0.0645
AAAGTTCT | -0.173
ACGGCGAT | -0.0312
CACTACAA | 0.0296
ACGCGACG | 0.111
AATTTAGC | -0.00571
CAAATCTG | 0.158
CTCCCCGA | -0.0766
AAACTTCA | 0.101
ACATAAGT | -0.0903
GATTAAGC | 0.0627
AATAGCGT | 0.101
GAATGACA | -0.145
TCCGAGAA | 0.112
CCATAAAC | -0.00406
GTAAGCGA | -0.159
CGAGCTCA | -0.0326
